The text below walks through data of ChEMBL document CHEMBL4888484, “Replenishing the malaria drug discovery pipeline: Screening and hit evaluation of the MMV Hit Generation Library 1 (HGL1) against asexual blood stage Plasmodium falciparum ,using a nano luciferase reporter read-out” (2022).

Each structure is given as a SMILES string. In all, about 150,000 compounds went through this assay and about 540 (0.36%) showed an effect of 50% or more. This is one part of the list.

The subject of this assay is Plasmodium falciparum. Nature of the assay: Primary screen in NF54 nanoGlo assay, in single point, at 2uM, 72h; a lower Z score goes with more inhibition. The class given is functional, Erythrocyte. Conditions: timepoint 72 hour.
As usually defined, the % Inhibition is the change of the read-out against control, counted positive when it falls. Consider `CC(C)c1noc(-c2nc(-c3ccc4c(c3)OCO4)no2)n1`, for which the “% Inhibition” value is -7% and the Z score was 0.63.

Regarding `COc1cccc(C(c2c(C)nn(-c3ccccc3)c2O)c2c(C)nn(-c3ccccc3)c2O)c1OC`, the “% Inhibition” value is recorded as -22% and the Z score is on record as 2.62.

For the compound `Cc1c[nH]c(CN2CC[C@H](NC(=O)c3ccccc3)[C@@H](O)C2)c(C)c1=O`, the “% Inhibition” value is given as -17% and the Z score turned out to be 1.56.

`Cc1[nH]c2ccccc2c1CCn1ccnc1-c1ccccc1C(=O)O`: the “% Inhibition” value is given as -8% and the Z score amounted to 0.89.

Regarding `CCc1nc(C)ncc1C(=O)N[C@@H](C)C(C)(C)C`, the “% Inhibition” value is -10% and the Z score is recorded as 1.01.

As to `COc1ccc(N[C@@H](C)c2ccc(NC(C)=O)cc2)cn1`, the “% Inhibition” value is reported as -5% and the Z score is 0.58.

Consider `O=C(Nc1ccc(N2CCOCC2)cc1)[C@@H]1CC=CCC1`, for which the “% Inhibition” value was 34% and the Z score is -3.81.

For `CC(C)c1noc([C@@H]2CCCN2S(=O)(=O)c2ccc3c(c2)CCC(=O)N3)n1`, the “% Inhibition” value worked out at 9% and the Z score is given as -1.12.

Turning to `CCCc1c(C(=O)N2CCN(c3nc4cc(C)c(C)cc4nc3C(=O)OCC)CC2)cnn1-c1ccccc1`, the “% Inhibition” value is listed as -3% and the Z score was 0.33.

For `CCOC(=O)C[C@H]1COCCN1C(=O)c1cncn1C`, the “% Inhibition” value was -12% and the Z score turned out to be 2.2.

With `O=C1C[C@H](c2ccc(O)c(Cl)c2)c2c(n(C3CCCCCCC3)[nH]c2=O)N1`, the “% Inhibition” value is on record as 27% and the Z score is given as -3.02.

`CCc1cccc2sc(NCCCN3CCOCC3)nc12`: the “% Inhibition” value turned out to be 4% and the Z score is listed as -0.51.

Consider `Cc1nc(-n2cnnc2)ccc1-c1ccc(C(=O)NC[C@H]2CCCO2)cc1`, for which the “% Inhibition” value is -3% and the Z score was 0.37.

As to `CCn1cc(C)c(NOCCCN2C(=O)c3ccccc3C2=O)nc1=O`, the “% Inhibition” value is reported as -4% and the Z score came to 0.77.

As to `CN(C)c1cc(NC(=O)C(=O)Nc2cccc(Oc3ccnc4ccccc34)c2)cc(C(F)(F)F)c1`, the “% Inhibition” value is -18% and the Z score is 1.89.

With `CC(=O)N(Cc1ccccn1)c1ccc(Cl)cc1`, the “% Inhibition” value was -2% and the Z score turned out to be 0.2.

Regarding `CCC(C)NC(=O)c1cn2c3c(cccc3c1=O)CC2C` (centres undefined), the “% Inhibition” value is given as 4% and the Z score was -0.47.

For the compound `Cc1cc(-c2nc(-c3ccncc3)no2)c(=O)[nH]c1C`, the “% Inhibition” value is given as -13% and the Z score is listed as 1.57.

Turning to `c1cc(CNCCOc2ccc3c(c2)OCO3)c2[nH]ncc2c1`, the “% Inhibition” value was found to be 4% and the Z score is -0.72.

As for `CCCn1nccc1-c1ccc(-n2cnnc2)nc1C`, the “% Inhibition” value was -9% and the Z score is 1.61.

Regarding `O=C1N[C@@H](c2cnc(N3CCOCC3)nc2)Nc2ncccc21`, the “% Inhibition” value is recorded as -13% and the Z score was 1.22.

With `CCCCN(CC(N)=O)CC(=O)N1CCC[C@H](C)C1`, the “% Inhibition” value is -9% and the Z score was found to be 0.87.

Turning to `COc1ccc2c(-c3c(-c4ccccc4)ncn3Cc3ncn[nH]3)cn(C)c2c1`, the “% Inhibition” value was -1% and the Z score was determined as 0.06.

For `CCc1nc(Cn2nnnc2C(C)(C)C)cs1`, the “% Inhibition” value is recorded as -5% and the Z score was found to be 0.43.

Turning to `Cc1ccc(N2CCNC2=O)cc1NC(=O)N1Cc2cnn(C)c2CC(C)(C)C1`, the “% Inhibition” value is reported as -13% and the Z score is 2.61.

As to `Cc1cccc(CN2CCn3c(nn(C)c3=O)C2)c1`, the “% Inhibition” value was -21% and the Z score is on record as 3.6.

On to `Cc1c([C@H](C)NC(=O)c2cncn2C)cnn1C`, for which the “% Inhibition” value was -4% and the Z score is recorded as 0.79.

With `O=C(Nc1nocc1C1CC1)c1ccnc(C2CC2)n1`, the “% Inhibition” value is listed as -16% and the Z score was found to be 2.11.

`CN(CC(=O)Nc1sc2c(c1C#N)CCC2)Cc1cnn(Cc2ccccc2)c1`: the “% Inhibition” value was 13% and the Z score is -1.57.

As to `CCN(CC)[C@@H](C)CNS(=O)(=O)c1cnn(C)c1`, the “% Inhibition” value was -2% and the Z score stood at 0.22.

Consider `CCN(CC)c1ccc(C(=O)N2C[C@H](c3cccc(OC)c3)[C@@H](N)C2)cc1`, for which the “% Inhibition” value is reported as -1% and the Z score came to 0.13.

`Cc1cccc(CC(CNC(=O)C2CC2C)C(=O)O)c1` (centres undefined): the “% Inhibition” value was -13% and the Z score came to 1.46.

On to `O=C(c1cccc2ccccc12)N1CC[C@@]2(CCCN(CC3CC3)C2)C1`, for which the “% Inhibition” value is listed as 7% and the Z score is recorded as -0.91.

For the compound `CC(C)(C)CC(=O)N[C@@H]1CC[C@H]2CCOc3ccccc3C(=O)N3CCN(Cc4cccnc4)C[C@H]3C(=O)NC[C@H]1O2`, the “% Inhibition” value is reported as -4% and the Z score came to 0.56.

For the compound `CC(C)C(=O)N1CC[C@H](NC2Cc3ccccc3C2)C1`, the “% Inhibition” value is listed as -5% and the Z score was determined as 0.5.

On to `c1cn(-c2nc(-n3ccnc3)nc(-n3ccnc3)n2)cn1`, for which the “% Inhibition” value was 4% and the Z score was -0.54.

As to `C[C@@H](c1ccco1)N(C)Cc1c[nH]nc1-c1ccc(F)cc1F`, the “% Inhibition” value is listed as -5% and the Z score was 0.68.

As to `CCn1cc(S(=O)(=O)Nc2ncc(S(=O)(=O)NC(C)(C)C)s2)cn1`, the “% Inhibition” value is on record as -5% and the Z score was determined as 1.01.

Consider `CCCCc1nc(CN2CCn3nc(C#N)cc3C2)c[nH]1`, for which the “% Inhibition” value is given as 4% and the Z score is recorded as -0.52.

In the case of `c1cnc(NC2CCN(c3ncnc4c3CCNC4)CC2)nc1`, the “% Inhibition” value is 0% and the Z score stood at 0.02.

On to `N[C@@H](CCc1ccccc1)c1ccc2c(c1)CCO2`, for which the “% Inhibition” value stood at 7% and the Z score is recorded as -1.01.

Turning to `CC(CNC(=O)c1ccc(CN2CC(=O)N3CCCC3C2=O)cc1)c1ccccc1` (centres undefined), the “% Inhibition” value is on record as -13% and the Z score was found to be 2.48.
